Drawing on PubChem BioAssay (NCI), this text covers TGI for 1 compound.

The subject of this experiment is NCI-H322M lung. Description: inhibition of tumour cell growth, NCI panel, 48 h.

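1) Cells in 96-well plates. 2) Compound, 48 h, 5 concentrations. 3) Linear interpolation between surrounding doses. 4) Unreached endpoint = highest concentration. At the TGI there is no net growth.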

As for `COc1cc2oc(=O)cc(C)c2cc1[N+](=O)[O-]`, the TGI is more than 100 µM.
